# The full ranking holds about 4,100 sequences; the median of “relative CpG methylation activity (normalised to average over all NNNCGNNN flanks)” is about 0.87, and the highest 2% start at about 2.4. The list shows a part of the results.
# Target: DNMT3A catalytic domain (mouse) (UniProt O88508)
# Assay: relative CpG methylation activity (normalised to average over all NNNCGNNN flanks) (relative (1 = mean)); higher = more methylation of the central CpG
# Settings: system: in vitro, murine catalytic domain; CpG state: hemimethylated substrate pool; residues: 608-908
# Procedure: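 Deep enzymology: a pool of dsDNA substrates with a central CpG flanked by 10 random nucleotides on each side was methylated by the murine DNMT3A or DNMT3B catalytic domain (0.8 mM SAM, 37 °C, 60 min). Methylation was then read out by hairpin ligation, bisulfite conversion and NGS. Values are the average methylation of each NNNCGNNN context (±3 flanks; the outer flanks are random and averaged over), normalised to the overall mean, so 1 = average activity.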
row,Sequence,relative CpG methylation activity
1,CGCCGCAG,0.38
2,CCGCGGGT,1.11
3,TTCCGATT,1.53
4,AAACGGCT,0.837
5,GCACGCAA,1.49
6,CTACGCTT,2.38
7,CTGCGTCC,2.14
8,ATGCGAGA,1.24
9,CACCGTGG,0.145
10,GCGCGGTC,0.979
11,GGGCGCCT,1.57
12,CGGCGGGC,0.606
13,ACTCGGTT,0.391
14,TCACGACG,1.37
15,ACTCGGGA,0.476
16,TACCGCGT,0.602
17,TCACGCAG,0.929
18,GAGCGTGA,0.466
19,TGACGTTT,0.561
20,ATGCGTGC,1.08
21,TACCGGGC,0.455
22,TCGCGTTT,0.46
23,AGGCGAAA,0.861
24,TAGCGATA,0.467
25,GGTCGTAG,0.145

row,Sequence,relative CpG methylation activity
1,GGGCGAAC,1.22
2,CACCGGAC,0.809
3,CGGCGACT,0.787
4,ATACGACC,2.41
5,ATTCGTGT,0.417
6,AAGCGAAC,1.02
7,CAACGTAC,0.934
8,CTGCGGAA,0.784
9,TTTCGCGC,1.16
10,AGGCGGCT,0.933
11,GTACGGCT,1.97
12,GATCGGCC,0.492
13,GTTCGTCC,1.56
14,CCTCGTGA,0.701
15,AACCGAAC,1.62
16,CCTCGAAC,1.4
17,AAGCGGAA,0.607
18,GGTCGATG,0.241
19,CAACGAAA,0.685
20,AGCCGTGA,0.258
21,TAGCGTTC,0.524
22,ACACGGGA,0.876
23,AACCGACA,1.27
24,GCCCGGGA,1.08
25,CCCCGCGC,1.17

row,Sequence,relative CpG methylation activity
1,CACCGTTT,0.474
2,AAGCGTCC,1.22
3,CTACGTAC,1.9
4,CGGCGCAT,0.484
5,ATTCGTCT,1.65
6,GTACGCAA,1.89
7,TATCGGTC,0.637
8,TCTCGATT,1.15
9,GTACGGGG,1.06
10,GTGCGGCT,1.07
11,CTTCGCCA,2.15
12,ACGCGTCC,1.53
13,TCGCGTAT,0.522
14,AGGCGCAT,0.493
15,GTTCGCCC,2.25
16,GTTCGGCG,1.45
17,CAACGTTA,0.594
18,CTACGACA,2.18
19,TCGCGTTG,0.608
20,TTTCGTCC,1.65
21,AGGCGCGA,0.508
22,CACCGACC,1.1
23,AGTCGCGT,0.385
24,TGCCGGCT,0.855
25,TAGCGCGC,0.503

row,Sequence,relative CpG methylation activity
1,CTACGTCT,2.45
2,CGACGGAC,0.879
3,GATCGTTT,0.404
4,TTCCGCCT,2.6
5,TCCCGACG,1.06
6,GGACGAAG,0.2
7,TCGCGCGT,0.856
8,ATCCGTAC,1.07
9,TGGCGCCT,1.31
10,AGGCGGTC,0.722
11,CCTCGCGA,1.03
12,ATACGATC,2.12
13,TTGCGAAA,1.55
14,ATACGTAT,1.35
15,GACCGGGC,1.11
16,CCACGTAA,1.59
17,TGCCGGGG,0.238
18,AGACGAGA,0.731
19,CCGCGTTT,0.526
20,GTGCGGAT,0.725
21,ATGCGTTG,0.99
22,GGTCGCCT,1.48
23,GCACGGGG,0.633
24,CTTCGCGC,1.34
25,CCACGCCG,1.71

row,Sequence,relative CpG methylation activity
1,CAGCGATA,0.439
2,TTACGTCG,2.52
3,TTACGCGT,1.81
4,TGGCGGGT,0.455
5,CCTCGTTC,1.08
6,TTTCGAAA,1.06
7,AGCCGATG,0.521
8,GTCCGCGC,2.12
9,AGACGTGA,0.553
10,TTTCGATT,0.862
11,CATCGATT,0.297
12,AGACGGTT,0.458
13,GTTCGTAG,0.538
14,TTTCGATA,1.06
15,TACCGGCA,0.625
16,CACCGGTC,1.07
17,TCTCGTTA,1.25
18,ATACGAGT,1.56
19,ACACGCAA,1.53
20,AGACGTAT,0.427
21,ACCCGTAC,0.962
22,AGGCGGGC,0.431
23,GATCGTCT,0.727
24,CCCCGTCA,1.79
25,CTACGAAA,2.07

row,Sequence,relative CpG methylation activity
1,CCGCGGAA,0.965
2,CACCGTGC,0.391
3,CCACGTTA,1.24
4,ATCCGTGC,0.749
5,CGGCGGAA,0.813
6,CCACGAGA,0.981
7,ATACGACT,1.67
8,AGGCGCCG,1.52
9,TTGCGTGC,0.811
10,CATCGACG,0.36
11,GCTCGATA,0.724
12,TAACGAAT,0.438
13,GTCCGGGT,1.36
14,CGACGTCC,1.22
15,GCTCGAGA,0.685
16,GACCGAAA,1.26
17,CCGCGGGA,0.714
18,TTTCGCGA,0.905
19,AGGCGGTG,0.455
20,GTTCGCGG,0.25
21,ACACGGCC,1.64
22,ACTCGAAT,0.8
23,GTGCGACG,1.11
24,AGTCGTTC,0.333
25,CACCGTAA,1.01

row,Sequence,relative CpG methylation activity
1,CAACGCGT,0.588
2,ATCCGTAG,0.856
3,CCTCGACA,1.18
4,CGACGACC,0.792
5,TAACGATG,0.405
6,AGCCGGAA,0.699
7,GCCCGGCC,0.951
8,ATCCGAGT,1.82
9,TGTCGTCA,1.08
10,CCGCGTAT,0.434
11,TAGCGATC,0.803
12,TCACGACA,1.52
13,TTACGAAA,2.02
14,TATCGAGT,0.591
15,CGACGTGA,0.326
16,CATCGCGA,0.837
17,GATCGGGA,0.388
18,CTGCGTTT,1.38
19,GGGCGTCG,0.833
20,TTTCGGTT,0.461
21,GGACGTAT,0.21
22,ACGCGGAT,0.705
